# The list shows a part of the results.
# What was measured:
# Assay in all cases: glycan array binding signal (z-score within array); higher = stronger binding
# Conditions in all cases: glycan notation: IUPAC condensed, linker removed
# [1] = biological target: 3-Anhydro-Gal(a1-3)Gal(b1-4)3-Anhydro-Gal(a1-3)Gal4S
# How it was run: (§1)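 Glycan array data were curated from 3228 arrays in the Consortium for Functional Glycomics database and kept only where the protein sequence was available. Glycan names were converted to IUPAC-condensed notation, and columns mapping to the same glycan were averaged. The binding signal is a within-array Z-score, averaged across arrays of the same protein sequence at different concentrations or buffers and across linkers. Negative Z-scores can be read as non-binding.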
# [2] = biological target: 3-Anhydro-Gal(a1-3)Gal4S(b1-4)3-Anhydro-Gal(a1-3)Gal4S
# How it was run: as §1
# [3] = biological target: 3-Anhydro-Gal(a1-3)Gal4S(b1-4)3-Anhydro-Gal(a1-3)Gal4S(b1-4)3-Anhydro-Gal(a1-3)Gal4S
# How it was run: as §1
# [4] = biological target: 3-Anhydro-Gal(a1-3)Gal4S(b1-4)3-Anhydro-Gal(a1-3)Gal4S(b1-4)3-Anhydro-Gal(a1-3)Gal4S(b1-4)3-Anhydro-Gal(a1-3)Gal4S
# How it was run: as §1
# [5] = biological target: 3-Anhydro-Gal(a1-3)Gal4S(b1-4)3-Anhydro-Gal2S(a1-3)Gal4S(b1-4)3-Anhydro-Gal(a1-3)Gal4S
# How it was run: as §1
# [6] = biological target: 3dGal(b1-3)[Fuc(a1-4)]Glc
# How it was run: as §1
# [7] = biological target: 3dGal(b1-4)Glc
# How it was run: as §1
# [8] = biological target: Ara(a1-5)Ara(a1-5)Ara(a1-5)Ara(a1-5)Ara(a1-5)Ara
# How it was run: as §1
# [9] = biological target: Ara(a1-5)Ara(a1-5)Ara(a1-5)Ara(a1-5)Ara(a1-5)Ara(a1-5)Ara
# How it was run: as §1
# [10] = biological target: Fuc(a1-2)Gal
# How it was run: as §1
# [11] = biological target: Fuc(a1-2)Gal(b1-3)GlcNAc(b1-3)Gal(b1-4)Glc
# How it was run: as §1
# [12] = biological target: Fuc(a1-2)Gal(b1-3)GlcNAc(b1-3)[Fuc(a1-3)[Gal(b1-4)]GlcNAc(b1-6)]Gal(b1-4)Glc
# How it was run: as §1
# [13] = biological target: Fuc(a1-2)Gal(b1-3)[Fuc(a1-4)]GlcNAc(b1-3)Gal(b1-4)Glc
# How it was run: as §1
# [14] = biological target: Fuc(a1-2)Gal(b1-3)[Fuc(a1-4)]GlcNAc(b1-3)Gal(b1-4)[Fuc(a1-3)]GlcNAc(b1-3)Gal(b1-4)Glc
# How it was run: as §1
# [15] = biological target: Fuc(a1-2)Gal(b1-3)[Fuc(a1-4)]GlcNAc(b1-3)[Fuc(a1-2)]Gal(b1-4)Glc
# How it was run: as §1
# [16] = biological target: Fuc(a1-2)Gal(b1-3)[Fuc(a1-4)]GlcNAc(b1-3)[Fuc(a1-3)[Gal(b1-4)]GlcNAc(b1-6)]Gal(b1-4)Glc
# How it was run: as §1
# [17] = biological target: Fuc(a1-2)Gal(b1-3)[Fuc(a1-4)]GlcNAc(b1-3)[Gal(b1-4)GlcNAc(b1-6)]Gal(b1-4)Glc
# How it was run: as §1
# [18] = biological target: Fuc(a1-2)Gal(b1-4)[Fuc(a1-3)]GlcNAc(b1-3)Gal(b1-4)Glc
# How it was run: as §1
# [19] = biological target: Fuc(a1-2)Gal(b1-4)[Fuc(a1-3)]GlcNAc(b1-3)[Fuc(a1-2)]Gal(b1-4)Glc
# How it was run: as §1
# [20] = biological target: Fuc(a1-2)[Gal(a1-3)]Gal
# How it was run: as §1
# [21] = biological target: Fuc(a1-2)[Gal(a1-3)]Gal(b1-4)GlcNAc(b1-3)Gal(b1-4)Glc
# How it was run: as §1
# [22] = biological target: Fuc(a1-2)[GalNAc(a1-3)]Gal
# How it was run: as §1
# [23] = biological target: Fuc(a1-2)[GalNAc(a1-3)]Gal(b1-3)GlcNAc(b1-3)Gal(b1-4)Glc
# How it was run: as §1
# [24] = biological target: Fuc(a1-2)[GalNAc(a1-3)]Gal(b1-3)[Fuc(a1-4)]GlcNAc(b1-3)Gal(b1-4)Glc
# How it was run: as §1
# [25] = biological target: Fuc(a1-2)[Neu5Ac(bond)]Gal(b1-3)GlcNAc(b1-3)Gal(b1-4)Glc
# How it was run: as §1
# [26] = biological target: Fuc(a1-3)GlcNAc6S
# How it was run: as §1
# [27] = biological target: Fuc(a1-3)[3dGal(b1-4)]Glc
# How it was run: as §1
# [28] = biological target: Fuc(a1-3)[Gal(b1-4)]GlcNAc
# How it was run: as §1
# [29] = biological target: Fuc(a1-3)[Gal(b1-4)]GlcNAc(b1-3)Gal(b1-4)Glc
# How it was run: as §1
# [30] = biological target: Fuc(a1-3)[Gal(b1-4)]GlcNAc(b1-3)Gal(b1-4)[Fuc(a1-3)]Glc
# How it was run: as §1
binder,measurement,setting,value
"Malectin (Xenopus laevis), Q6INX3 (protein) SGLADKVIWAVNAGGESHVDVHGIHYRKDPLEGRVGRASDYGMKLPILRSNPEDQVLYQTERYNEDSFGYDIPIKEEGEYVLVLKFAEVYFAQSQQKVFDVRVNGHTVVKDLDIFDRVGHSTAHDEIIPISIKKGKLSVQGEVSTFTGKLSVEFVKGYYDNPKVCALFIMKGTADDVPMLQPHPGLE",glycan array binding signal (z-score),[1],-0.076
same,glycan array binding signal (z-score),[2],-0.076
same,glycan array binding signal (z-score),[3],-0.076
same,glycan array binding signal (z-score),[4],-0.076
same,glycan array binding signal (z-score),[5],-0.076
same,glycan array binding signal (z-score),[6],-0.076
same,glycan array binding signal (z-score),[7],-0.07
same,glycan array binding signal (z-score),[8],-0.069
same,glycan array binding signal (z-score),[9],-0.073
same,glycan array binding signal (z-score),[10],-0.064
same,glycan array binding signal (z-score),[11],-0.068
same,glycan array binding signal (z-score),[12],-0.067
same,glycan array binding signal (z-score),[13],-0.076
same,glycan array binding signal (z-score),[14],-0.072
same,glycan array binding signal (z-score),[15],-0.07
same,glycan array binding signal (z-score),[16],-0.073
same,glycan array binding signal (z-score),[17],-0.07
same,glycan array binding signal (z-score),[18],-0.076
same,glycan array binding signal (z-score),[19],-0.073
same,glycan array binding signal (z-score),[20],-0.074
same,glycan array binding signal (z-score),[21],-0.067
same,glycan array binding signal (z-score),[22],-0.076
same,glycan array binding signal (z-score),[23],-0.073
same,glycan array binding signal (z-score),[24],-0.064
same,glycan array binding signal (z-score),[25],-0.076
same,glycan array binding signal (z-score),[26],-0.075
same,glycan array binding signal (z-score),[27],-0.074
same,glycan array binding signal (z-score),[28],-0.075
same,glycan array binding signal (z-score),[29],-0.068
same,glycan array binding signal (z-score),[30],-0.076

# Reference: the supplement of paper PMC8728848
